Values joined by “and” are separate entries in the source; they are usually repeats but may differ in a detail not shown here. Identical values can stand only once. The campaign covered roughly 110,000 compounds. About 230 (0.21%) showed an effect of 50% or more. The list shows a part of the results.
target: DPAP1 (Plasmodium falciparum, UniProt Q8IIJ9); assay: primary screen, percent inhibition; read by cleavage of a fluorogenic dipeptide substrate; higher = more effect of the substance; set-up: species or system P. falciparum D10 trophozoite lysates; single well
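Also: 30 min substrate incubation versus DMSO and 10 µM JCP410 controls.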

DPAP1, sequence (Q8IIJ9 whole entry, looked up): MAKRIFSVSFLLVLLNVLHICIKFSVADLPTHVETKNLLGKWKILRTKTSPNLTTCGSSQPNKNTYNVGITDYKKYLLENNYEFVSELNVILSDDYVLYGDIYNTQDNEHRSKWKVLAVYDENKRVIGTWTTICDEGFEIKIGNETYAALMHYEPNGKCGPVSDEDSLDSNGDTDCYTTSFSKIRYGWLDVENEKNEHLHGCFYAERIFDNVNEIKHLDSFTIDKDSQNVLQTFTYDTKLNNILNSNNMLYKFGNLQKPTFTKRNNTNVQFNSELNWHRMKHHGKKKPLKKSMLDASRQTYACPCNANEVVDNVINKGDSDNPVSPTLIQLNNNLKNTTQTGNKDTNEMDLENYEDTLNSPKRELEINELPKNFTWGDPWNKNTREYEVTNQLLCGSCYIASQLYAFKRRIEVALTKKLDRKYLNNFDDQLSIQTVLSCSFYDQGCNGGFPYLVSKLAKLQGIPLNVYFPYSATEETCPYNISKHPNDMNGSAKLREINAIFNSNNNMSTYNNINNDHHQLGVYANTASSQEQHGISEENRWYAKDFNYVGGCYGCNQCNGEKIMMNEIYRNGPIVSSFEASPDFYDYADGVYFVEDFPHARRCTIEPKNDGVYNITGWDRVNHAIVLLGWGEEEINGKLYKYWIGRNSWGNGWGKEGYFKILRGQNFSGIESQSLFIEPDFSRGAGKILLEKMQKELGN

In order of rising “% Inhibition @ 10 uM” value:
1. CC(C(=O)NCC1CCCO1)n1ncn2cccc2c1=O (stereo not shown)  -8.23%
2. O=C1NC(=S)NC(=O)C1C/C=C/c1ccccc1  -8.15%
3. COc1ccc(/C=c2\sc3n(c2=O)CCN=3)c(OC)c1  -6.95%
4. CC(NC(=O)C(C)n1ncn2cccc2c1=O)c1ccccc1 (stereo not shown)  -5.95%
5. Cc1nn(Cc2noc(C(=O)NCCC34CC5CC(CC(C5)C3)C4)n2)c(C)c1Br  -5.53%
6. CCc1cccc(C)c1NC(=O)c1ccn(C)n1  -5.28%
7. CCCCC(=O)NC(c1ccccc1OC)c1ccc2cccnc2c1O (stereo not shown)  -5.28%
8. COC1CC(C)(C)Oc2ccc3oc(C(=O)N4CCc5ccccc5C4)c(C)c3c21 (stereo not shown)  -5.15%
9. CCN(Cc1ccccc1)S(=O)(=O)c1cc(-c2cc(C)no2)ccc1C  -5.09%
10. CCCCN1C(=O)c2ccccc2S1(=O)=O  -5.08%
11. Cc1sc2c3ccsc3ccc2[n+]1C  -4.84%
12. CN1C(=O)NC(=O)/C(=C\c2cn(Cc3ccccc3Cl)c3ccccc23)C1=O  -4.74%
13. CSc1ccc(C2C3=C(O)CC(C)(C)CC3=NC(C)=C2C(=O)Nc2ccccn2)cc1 (stereo not shown)  -4.48%
14. O=C1c2cccc([N+](=O)[O-])c2C(=O)N1c1ccncc1  -3.77%
15. COc1ccc(-c2cc(C(=O)N3CCN(c4ncccn4)CC3)c3ccccc3n2)c(OC)c1  -3.72%
16. CC1=C(C(=O)N2CCc3ccccc3C2)C2(CCCCC2)OC1=O  -3.7%
17. Cc1onc(-c2ccccc2)c1C(=O)NCCCCc1ccccc1  -3.63%
18. CCCCN(CCCC)CCn1cnc2c3cc(F)ccc3nc-2c1O  -3.52%
19. Cc1cccc(NC(=O)Nc2cc(C)ccc2C)c1  -3.28%
20. c1ccc(N2CCN(C3CN4CCC3CC4)CC2)cc1 (stereo not shown)  -3.27%
21. CCCCC(=O)Nc1nc2c(C)cccc2s1  -3.16%
22. CC(C)N(C(=O)c1ccc2c(c1)OCCO2)C(C)C  -2.94%
23. Cn1nnnc1SCC(=O)Nc1nc2ccccc2s1  -2.84%
24. CC(=O)c1ccc(N2C(=O)C3CC(C)=C(C)CC3C2=O)cc1 (stereo not shown)  -2.67%
25. CC1=C(C(=O)Nc2ccc(C)cn2)C(c2ccccn2)C2=C(O)CC(C)(C)CC2=N1 (stereo not shown)  -2.64%
26. Clc1cccc(OCCCCCN2CCOCC2)c1  -2.54%
27. COc1ccc(NC(=O)/C=C/c2ccccc2Cl)cc1  -2.34%
28. Cc1ccccc1NC(=O)c1cccc(NC(=O)C(F)(F)F)c1  -2.32%
29. CN(Cc1ccccc1)C(=O)Nc1ccc(Cl)cc1  -2.3%
30. C=CCn1c2ccccc2n2cc(-c3ccccc3)nc12  -2.2%
31. O=S(=O)(NCc1ccccc1)c1ccc(OCCn2cnnn2)cc1  -2.19%
32. Cc1noc(C(=O)NCc2ccco2)c1Cl  -1.92%
33. Cc1c(CNCCCc2ccccc2)c(C(=O)O)c(C)n1Cc1c(F)cccc1Cl  -1.92%
34. COc1cccc(CNC(=O)C(C)n2nc(C)c3sc4ccccc4c3c2=O)c1 (stereo not shown)  -1.6%
35. COc1cc(C(=O)NCCNC(=O)c2ccncc2)cc(OC)c1OC  -1.4%
36. Cc1cccc(C(=O)O/N=C(\N)Cc2cccc3ccccc23)c1  -1.4%
37. CCCCn1c(CN2CCN(C(=O)OCC)CC2)nc2c1c(=O)[nH]c(=O)n2C  -1.21%
38. O=C(CCN1CCN(C2C3CC4CC(C3)CC2C4)CC1)N1c2ccccc2Sc2ccc(Cl)cc21 (stereo not shown)  -1.15%
39. O=C(c1ccc(CN(c2ccccc2)S(=O)(=O)c2ccccc2)cc1)N1CCOCC1  -0.992%
40. O=C1OC(c2ccc(Cl)cc2Cl)=N/C1=C\c1ccc(F)cc1  -0.972%
41. COc1ccc(C(=O)NCc2cn3c(C)csc3n2)cc1OC  -0.72%
42. O=C(CCc1nnc2n(CCc3ccccc3)c(=O)c3ccccc3n12)NCCC1=CCCCC1  -0.692%
43. O=C(O)C1CCN(C2CC(=O)N(c3cccc(Br)c3)C2=O)CC1 (stereo not shown)  -0.63%
44. CCc1nn2c(=O)cc(COc3ccc(/C=C(\C#N)C(=O)NCc4ccccc4)cc3)nc2s1  -0.495%
45. N#Cc1c(NC(=O)CCCCC(=O)Nc2sc3c(c2C#N)CCC3)sc2c1CCC2  -0.053%
46. CCC/C(=N\c1ccc(OC)cc1)C1=C(O)CC(C)(C)CC1=O  0.169%
47. CN1C(=O)C(=Cc2c[nH]c3ccccc23)C(=O)N(C)C1=O  0.343%
48. O=C(CN1C2=NCCCN2c2ccccc21)c1ccc(O)cc1  0.431%
49. NC(=O)c1cc(-c2ccc(Cl)cc2)nc2ccc(Br)cc12  0.565%
50. Nc1ncc(Br)cc1S(=O)(=O)NCCc1ccc(Cl)cc1  0.655%
51. O=C(C1c2ccccc2Oc2ccccc21)N1N=C(C(F)F)CC1(O)C(F)F (stereo not shown)  0.658%
52. CCOC(=O)C1=C(CN2CCN(c3ccc(Cl)nn3)CC2)NC(=O)NC1c1ccc(Cl)cc1 (stereo not shown)  0.708%
53. Cc1ccnc(N2C(=O)c3ccccc3C2O)c1 (stereo not shown)  0.708%
54. Cc1cc(Oc2coc3cc(O)ccc3c2=O)cc(C)c1Cl  0.709%
55. COc1cccc(NC(=O)COc2ccccc2C)c1  0.709%
56. Cc1ccc(NCN2C(=O)C3C4C=CC(C4)C3C2=O)cc1C (stereo not shown)  0.751%
57. Cc1ccc(C(=O)N2CCN(C)CC2)cc1  0.827%
58. NC(=O)C1CCN(S(=O)(=O)c2ccc([N+](=O)[O-])cc2)CC1  0.962%
59. CCCC[C@H](NC(=O)[C@H](CS(=O)(=O)Cc1ccccc1C)NC(=O)N1CCOCC1)C(=O)c1nc2ccccc2o1  1.35%
60. CC1CCC(N2CCN(C/C=C/c3ccccc3)CC2)CC1 (stereo not shown)  1.37%
61. CC1CC(C)CN(CCCNC(=O)CCCc2cn(C)c3ccccc23)C1 (stereo not shown)  1.51%
62. O=C(Nc1ccc(-c2nc3ccccc3o2)cc1)c1cccs1  1.57%
63. Clc1cccc(CN2CCN(c3ncccn3)CC2)c1  1.63%
64. CCC[C@H](NC(=O)C1(NC(=O)c2ccc(OC(F)(F)F)cc2)CCCCC1)C(=O)c1nnc(-c2cccc(OC)c2)o1  1.7%
65. COc1cc(/C=C2\SC(N3CCOCC3)=NC2=O)cc(OC)c1OC  1.84%
66. CCOc1ccc(C(=O)C2=C(O)C(=O)N(Cc3ccco3)C2c2ccc(F)cc2)cc1 (stereo not shown)  2.36%
67. O=C(O)C1CCCCC1C(=O)Nc1ccc(N2CCOCC2)c2nonc12 (stereo not shown)  2.38%
68. O=P(O)(Cc1ccccc1O)c1ccccc1  2.6%
69. COc1cccc(NC(=O)CCC2CCCC2)c1  2.79%
70. COc1ccc(N2C(=O)CC(NCCc3ccc(Cl)cc3Cl)C2=O)cc1 (stereo not shown)  2.82%
71. Cc1ccc(CS(=O)Cc2ccc(C(=O)NCc3cccnc3)o2)cc1 (stereo not shown)  2.83%
72. Cc1ccc(C2(O)CSC3=C(C#N)C(c4ccc(C(F)(F)F)cc4)CC(=O)N32)cc1 (stereo not shown)  3.24%
73. CC1(C)CC(NC(=O)C23CCC(C)(c4nc5ccccc5nc42)C3(C)C)CC(C)(C)N1 (stereo not shown)  3.24%
74. CCC(Oc1ccccc1)C(=O)Nc1nnc(S(=O)(=O)NCC2CCCO2)s1 (stereo not shown)  3.3%
75. CCOC(=O)c1c(NC(=O)c2nn(C)cc2Br)sc(C)c1C  3.31%
76. CCOC(=O)c1[nH]c(C)c(C(C)=O)c1C  3.32%
77. CCN1CCC(N2CCN(c3ccc(C(C)=O)cc3)CC2)CC1  3.48%
78. CC(=O)c1c(C)nc2c(c1-c1ccc(Br)cc1)C(=O)c1ccccc1-2  3.53%
79. COc1ccc(/C=C/C(=O)Nc2ccc(OC)cc2OC)cc1  3.61%
80. COc1cc(/C=C2/C(=N)N3OC(C)=CC3=NC2=O)cc(Cl)c1OCc1cccc(C)c1  3.63%
81. Cc1nc2ccccn2c(=O)c1Oc1ccccc1  3.78%
82. CC1=C(C(=O)OC2CCCC2C)C(c2ccc(Cl)cc2)NC(=O)N1 (stereo not shown)  4.34%
83. COc1ccccc1CNC(=O)c1cc2c(s1)-c1ccccc1S(=O)(=O)C2  4.4%
84. O=C(Nc1c2c(nc3ccccc13)N(c1cccc(Cl)c1)CC2)C12CC3CC(CC(C3)C1)C2  4.54%
85. O=c1c2c(nc3n1CCCCC3)-c1ccccc1CC21CCCCC1  4.57%
86. CCOC(=O)CCn1c(CC(=O)OCC)nc2ccccc21  4.61%
87. CSc1ncc(C(=O)NCCc2ccc(Cl)cc2)c(C)n1  4.94%
88. C=CCNC(=O)c1c(NC(=O)c2ccccc2F)sc2c1CCCCC2  5.03%
89. FC(F)(F)c1nc(NCc2ccccc2)nc2c1CCCCC2  5.36%
90. CC(NC(=O)CN1CCN(Cc2ccc(Cl)cc2)C1=O)c1ccc2c(c1)OCCO2 (stereo not shown)  5.47%
91. NC(=O)C1CCN(C(=O)CSc2nc3c(c(-c4ccccc4)n2)CCCC3)CC1  5.66%
92. CC1=C(C(=O)OCCC(C)C)C(c2ccc(F)cc2)NC(=O)N1 (stereo not shown)  5.92%
93. COCCNC(=O)c1ccc2c(c1)sc1nc(-c3cccc(OC)c3)cn12  6.88%
94. O=[N+]([O-])c1ccccc1CN1CCC2(C=Cc3ccccc32)CC1  7.87%
95. Cn1nnc(NC(=O)CSc2nnnn2-c2ccc(C(=O)O)cc2)n1  8.3%
96. O=C1CC(NCc2ccc3c(c2)OCO3)C(=O)N1c1ccc(Cl)cc1 (stereo not shown)  8.71%
97. CC(C)(C)C1CCC(OC(=O)CCC(=O)Nc2cccc3ccccc23)CC1 (stereo not shown)  9.4%
98. CCN(CC)CCN(CC)CC1=CC[C@H]2C[C@@H]1C2(C)C  10.4%
99. Cc1ccc(N2C(=O)C3C4c5ccccc5C(C(C)O)(c5ccccc54)C3C2=O)cc1 (stereo not shown)  53.4%

In the case of `Nc1nc(-c2ccc(Br)cc2)cs1`, the “% Inhibition @ 10 uM” value is reported as -1.8% and 0.878%.
